Data from PubChem BioAssay AID588591 (National Center for Advancing Translational Sciences (NCATS), 2011).
Several values for one entry are separate records, joined by “and”; a condition that tells them apart may be missing. Identical values can stand only once. In all, about 390,000 compounds went through this assay and about 4,700 (1.2%) were called active. Inconclusive means that the source gave no clear call. Such entries were picked first, then a sample of the others. Calls follow the shape of the dose curve; as a rule, active = well fitted inhibition curve with a large enough effect; inconclusive = small, poorly fitted or top-dose-only effect, or another doubt; inactive = no such curve, though single readings can be large or run the other way. A potency beside an inconclusive call is a rough fit, not a confirmed value.

target: DNA polymerase eta (Homo sapiens) (UniProt Q9Y253); experiment: qHTS for Inhibitors of Polymerase Eta; details: recombinant Pol eta, fluorescent DNA replication assay; series mostly up to 114 µM
Summary of the method: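 Pol eta at 10 nM preincubated with compounds 15 min at room temperature; reaction started with fluorescent substrate (50 nM final) and read kinetically at 0 and 10 min.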
Potency is read from the fitted curve at half-maximal effect; tags tell the direction and shape of the fitted curve.

Sequence of UniProt Q9Y253 (Q9Y253 whole entry, looked up): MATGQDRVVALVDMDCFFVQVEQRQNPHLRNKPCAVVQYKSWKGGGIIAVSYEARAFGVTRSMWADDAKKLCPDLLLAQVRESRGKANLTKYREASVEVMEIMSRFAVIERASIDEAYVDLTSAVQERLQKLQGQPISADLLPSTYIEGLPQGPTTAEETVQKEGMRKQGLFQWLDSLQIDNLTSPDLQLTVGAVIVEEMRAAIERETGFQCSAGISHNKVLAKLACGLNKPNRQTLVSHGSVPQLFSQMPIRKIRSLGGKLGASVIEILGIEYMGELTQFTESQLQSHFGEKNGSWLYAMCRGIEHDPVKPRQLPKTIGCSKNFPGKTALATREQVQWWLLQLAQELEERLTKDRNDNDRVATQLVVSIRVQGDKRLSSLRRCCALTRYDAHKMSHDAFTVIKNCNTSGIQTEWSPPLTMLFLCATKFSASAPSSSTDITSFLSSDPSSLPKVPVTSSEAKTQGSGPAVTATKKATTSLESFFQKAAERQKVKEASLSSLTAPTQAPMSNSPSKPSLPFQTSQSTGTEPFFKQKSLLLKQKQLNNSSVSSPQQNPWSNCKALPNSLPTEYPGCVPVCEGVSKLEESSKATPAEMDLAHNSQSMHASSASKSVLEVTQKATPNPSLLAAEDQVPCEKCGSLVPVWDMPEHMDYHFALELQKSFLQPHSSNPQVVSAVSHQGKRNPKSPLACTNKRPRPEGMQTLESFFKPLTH

Compound | Potency
Cc1cccc(N2CCN(C(=O)CN3C(=O)CSc4c3c(C)nn4-c3ccccc3)CC2)c1C | inactive
Cc1ccc(S(=O)(=O)Nn2c(C)ccc2C)cc1 | inconclusive: 15.8 µM [inhibitor, partial curve, poor fit]
Cc1ccc(-c2nn(-c3ccccc3)cc2/C=C2\SC(=S)N(CCCCCC(=O)O)C2=O)o1 | active: 44.7 µM
Cc1ccc(S(=O)(=O)N2CCN(C(=O)COC(=O)CNC(=O)c3ccc(Cl)cc3Cl)CC2)c(C)c1 | inconclusive: 79.4 µM [inhibitor, partial curve, poor fit]
CCOC(=O)C1CCN(c2ncnc3c2cnn3C)CC1 | inactive
CCC(c1nnc(SCC(=O)Nc2cc(C)on2)o1)N(C)C (stereo not drawn) | inconclusive: 100 µM [inhibitor, single point]
Cc1cccc(Nc2nnc(SCC(=O)NC3CCCc4ccccc43)s2)c1C (stereo not drawn) | inconclusive: 28.2 µM [inhibitor, partial curve, poor fit]
O=C1c2cccc3cccc(c23)C(=O)N1c1nccs1 | inactive
CCCN(CCC)CCCNC(=O)c1cc2c(-c3ccc(OC)c(OC)c3)nn(C)c2s1 | inconclusive: 50.1 µM [inhibitor, partial curve, poor fit] and inconclusive: 44.7 µM [inhibitor, partial curve]
O=C(/C=C/c1ccc(Br)cc1)NC(=S)Nc1ccc(S(=O)(=O)Nc2nccs2)cc1 | inconclusive: 3.98 µM [inhibitor, full curve, poor fit]
Cc1ccccc1C(=O)N1CCN(S(=O)(=O)c2ccccc2)CC1 | inactive
CCOc1cc2[nH]c(=S)n(CCCN3CCN(C)CC3)c(=O)c2cc1OCC | inconclusive: 89.1 µM [inhibitor, partial curve, poor fit]
O=C(Nc1cccc(C(F)(F)F)c1)c1cc(CN2CCOCC2)on1 | inactive
CCOC(=O)c1c(NC(=O)CSc2nnc(C)c(=O)[nH]2)sc2c1CCCC2 | inactive
COc1ccc(-n2ncc3c(NC4CCCC4)ncnc32)cc1 | inactive
O=C(CN1C(=O)/C(=C\c2ccco2)SC1=S)Nc1ccc(O)cc1C(=O)O | active: 8.91 µM
CCOc1cc([N+](=O)[O-])cc(/C=C2/NC(=O)N(Cc3ccccc3F)C2=O)c1O | active: 50.1 µM
CN1CCS/C1=C/C=C1\SC(=S)N(CC(=O)O)C1=O | inconclusive: 22.4 µM [inhibitor, full curve]
Cc1cc(C)c(S(=O)(=O)Nc2ccc3c4c(cccc24)CC3)c(C)c1 | inconclusive: 50.1 µM [inhibitor, full curve, poor fit]
C[C@@H]1CC=C[C@H]2[C@H]1C(=O)N(Cc1ccccc1)[C@H]2c1ccc(-c2ccc(F)cc2)cc1F | inconclusive: 89.1 µM [inhibitor, partial curve, poor fit]
O=C(NCCO)c1cc2ccccc2cc1O | inactive
Cc1ccc2nc(NC(=O)CSc3nc4c(c(=O)n3C)SC(C)C4)sc2c1 (stereo not drawn) | inconclusive: 17.8 µM [inhibitor, partial curve, poor fit]
O=C(O)CCc1ccc(S(=O)(=O)Nc2cc(C(F)(F)F)ccc2N2CCCC2)cc1 | active: 22.4 µM

Compound | Potency
O=C(Cc1cccs1)NNC(=O)C12CC3CC(CC(C3)C1)C2 | inconclusive: 79.4 µM [inhibitor, partial curve, poor fit]
CN(CC(=O)NC(=O)NCc1ccccc1)CC(=O)Nc1ccc(Cl)c(C(F)(F)F)c1 | inactive
c1ccc(-c2cc(-c3nn4c(-c5ccco5)nnc4s3)c3ccccc3n2)cc1 | inconclusive: 89.1 µM [inhibitor, single point]
CC(C)C(O)(C(=O)NNc1ccccc1)C(C)C | inactive
Cc1ccc(F)c(NC(=O)/C(C#N)=C(\O)c2ccc(C(C)(C)C)cc2)c1 | active: 79.4 µM
C=CCOc1ccc(/C=C2\SC(=S)N(NS(=O)(=O)c3ccccc3)C2=O)cc1 | active: 25.1 µM
O=[N+]([O-])c1cccc(/C=C/c2nc3ccc([N+](=O)[O-])cc3[nH]2)c1 | inconclusive: 25.1 µM [inhibitor, partial curve]
CCOC(=O)c1ccc(N=Nc2c(C)c(C#N)c(O)[nH]c2=O)cc1 | inconclusive: 100 µM [inhibitor, partial curve, poor fit]
CN(c1ccccc1)S(=O)(=O)c1cccc(C(=O)OCC(=O)NCc2ccccc2)c1 | inconclusive: 39.8 µM [inhibitor, partial curve, poor fit]
CCNc1nc(NCC)n2c(SCC(=O)Nc3ccc(Br)cc3F)nnc2n1 | inconclusive: 35.5 µM [inhibitor, single point]
O=C(O)CCC(=O)N(Cc1cccs1)Cc1cccs1 | active: 20 µM
O=C(O)c1ccccc1-c1ccccc1C(=O)NCc1ccco1 | inconclusive: 89.1 µM [inhibitor, single point]
CCSC1=C(C#N)C(=O)n2c1cc1c2CCCC1 | active: 12.6 µM
O=C(Oc1ccccc1Cl)C1CCN(C(=O)c2ccc(F)cc2)CC1 | inconclusive: 3.55 µM [inhibitor, partial curve, poor fit]
CNCc1ccccc1Sc1cc(O)ccc1O | inactive
COc1cc(OC)cc(C(=O)Nc2cc3c(cc2N2CCCC2)n(C)c(=O)c(=O)n3C)c1 | inactive
CN(C)CCCN(C(=O)c1cc2cc([N+](=O)[O-])ccc2s1)c1nc2cc3c(cc2s1)OCCO3 | inconclusive: 63.1 µM [inhibitor, partial curve, poor fit]
O=C(NC[C@@H]1CCCO1)c1cccc2c1C(=O)c1ccc(Cl)cc1S2(=O)=O | inconclusive: 89.1 µM [inhibitor, partial curve, poor fit]
COc1ccc(C2=NN(C(=O)c3ccccc3)C(c3ccccc3)C2)c(O)c1 (stereo not drawn) | inconclusive: 89.1 µM [inhibitor, partial curve, poor fit]
CN(C)CCNc1ccc(CO)c2sc3ccc(O)cc3c(=O)c12 | inconclusive: 15.8 µM [inhibitor, partial curve, poor fit]
COc1cc(/C=C(\C#N)C(=O)c2c[nH]c3ccccc23)cc(OC)c1O | inconclusive: 79.4 µM [inhibitor, partial curve]
O=C1/C(=C/c2ccncc2)CCc2ccccc21 | active: 79.4 µM
COc1ccc2ccccc2c1/C=N/NC(=O)c1sc(N)c(C#N)c1C | inactive

Compound | Potency
CCC(=O)Nc1ccc(C(=O)Nc2ccc(OC)cc2[N+](=O)[O-])cc1 | inconclusive: 28.2 µM [inhibitor, partial curve, poor fit]
Cc1ccc2oc(=O)c3cc(C(=O)NCCCN4CCc5ccccc5C4)sc3c2c1 | inactive
CCN(C(=O)COC(=O)Cn1c(C)csc1=O)c1c(N)n(Cc2ccccc2)c(=O)[nH]c1=O | inconclusive: 28.2 µM [inhibitor, partial curve, poor fit]
COc1ccccc1-n1cnc2sc(-c3ccccc3)cc2c1=O | inactive
O=C(Nc1nnc(S(=O)(=O)N2CCCc3ccccc32)s1)c1ccccc1Cl | active: 56.2 µM
C=CCNC(=O)COC(=O)c1c2c(nc3ccccc13)CCC2 | active: 35.5 µM
NC(=O)c1ccccc1NC(=O)Nc1ccc(F)c(Cl)c1 | inconclusive: 79.4 µM [inhibitor, partial curve, poor fit]
O=C(CN1C(=O)S/C(=C\c2ccc(Cl)cc2)C1=O)NNC(=O)c1ccccc1O | inconclusive: 20 µM [inhibitor, full curve]
CCc1ccc(CNC(=O)CCCN2C(=O)CCn3nc(-c4cccn4C)cc32)cc1 | inactive
COc1ccc(CC(=O)NNS(=O)(=O)c2cccc([N+](=O)[O-])c2)cc1OC | inactive
Cc1cc(C(=O)O)ccc1-n1c(C)cc(C=C2C(=O)c3ccccc3C2=O)c1C | inconclusive: 39.8 µM [inhibitor, partial curve]
CCN(C(=O)COC(=O)c1c(NC(C)=O)sc(C)c1C)c1c(N)n(Cc2ccccc2)c(=O)[nH]c1=O | inconclusive: 50.1 µM [inhibitor, partial curve]
COc1cc(O)c(C(C)=O)c(CC(=O)O)c1 | active: 3.16 µM
Cc1ccc(C(=O)Nc2cc(-c3nc4ncccc4o3)ccc2C)c(C)c1 | active: 79.4 µM
O=C(O)c1cc2nccc(-c3ccco3)n2n1 | active: 17.8 µM
Cn1c(SCc2cc(=O)[nH]c3ccccc23)nnc1-c1ccc(Br)cc1 | inconclusive: 3.55 µM [inhibitor, partial curve, poor fit]
O=C(CC1Sc2ccccc2NC1=O)OCC(=O)N1CCc2ccccc21 (stereo not drawn) | inconclusive: 3.98 µM [inhibitor, full curve, poor fit]
CC(C)c1ccc(N2CC(C)(C)C2=O)cc1 | inconclusive: 79.4 µM [inhibitor, partial curve, poor fit]
COCCN(C(=O)CSc1nc2ccccc2s1)c1c(N)n(Cc2ccccc2)c(=O)[nH]c1=O | inconclusive: 11.2 µM [inhibitor, partial curve, poor fit]
COc1ccc(NC(=O)CSc2ccc3nc(-c4ccccc4)cn3n2)c(OC)c1 | inconclusive: 11.2 µM [inhibitor, partial curve, poor fit]
CC(C)(SC(=S)N1CCOCC1)C(=O)O | inconclusive: 25.1 µM [inhibitor, partial curve, poor fit]
COc1ccc(-c2ccc3c(c2)S(=O)(=O)c2cccc(C(=O)NCCOc4ccccc4)c2C3=O)cc1OC | inconclusive: 14.1 µM [inhibitor, full curve, poor fit]
